According to PubChem BioAssay AID1963576 (National Center for Advancing Translational Sciences (NCATS), 2024):
Out of some 46,000 compounds screened, about 60 (0.1%) were called active. Inconclusive results (about 3%) are left out. The call rests on the fitted dose curve; in most records, active means well fitted inhibition curve with a large enough effect; inconclusive means small, poorly fitted or top-dose-only effect; inactive means no such curve, though single readings can be large or run the other way. The list shows a part of the results.

Assay: Primary qHTS assay for Inhibitors of ovarian cancer metastasis using an organotypic tumor microenvironment (TME) model. Further: nearly all actives have a fitted effect of over 65% in size.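 On activity change, negative = inhibition: plate controls were DMSO wells for no effect and tomatine positive control wells for full effect.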
Conditions: SKOV3ip1-GFP adhesion/invasion on 3D omental model, fluorescence; series mostly up to 45.8 µM; activity change, negative = inhibition: at the top concentration
Outline: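 A 3D layer of primary human omental fibroblasts, mesothelial cells, fibronectin and collagen I, grown 48 hr, received SKOV3ip1-GFP cells in serum-free medium plus compounds at 0.36-46 umol/L. After 2 hr RT and 16 hr 37 C, fixed adherent GFP cells were counted; normalized to DMSO and tomatine.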

outcome, inactive:
N#Cc1ccc(C(=O)Nc2ccccc2-c2nc3ccccc3s2)c(F)c1
Cc1ccc(NC(=O)c2c(C)oc3ccc(O)c(CN4CCCC4)c23)c(C)c1
COc1cccc(CNC(=O)CCc2c(C)nc3c(c2C)c(=O)n(C)c(=O)n3C)c1
COc1ccc(Nc2ncnc3c2c(-c2ccccc2)cn3-c2ccc(C)c(Cl)c2)cc1OC
CCOc1ccc(CN2C(=O)c3ccccc3Sc3ccc(C(=O)NCCc4ccccc4)cc32)cc1
Cc1ccc(-n2c3c(c(=O)[nH]c2=O)C(NS(=O)(=O)c2ccc(C)cc2)(C(F)(F)F)C(=O)N3)cc1 (centres undefined)
CC(=O)c1cccc(Nc2ncnc3c2cnn3C)c1
O=C(NCCc1ccc(Cl)cc1)c1ccc(Cn2c(=O)[nH]c3ccccc3c2=O)cc1
CCOc1ccccc1NC(=O)Cc1csc(COc2cccc(C)c2)n1
Cc1ccccc1NC(=O)c1c(NC(=O)c2ccncc2)sc2c1CCC(C(C)(C)C)C2 (centres undefined)
CCn1cc(C(=O)N2CCN(c3cc(Cl)ccc3C)CC2)c(=O)c2cc(S(=O)(=O)N3CCOCC3)ccc21
CC(C)CCNC(=O)c1cn(C)c2ccc(S(=O)(=O)N3CCCC3)cc2c1=O
CCN(C(=O)CCS(=O)(=O)c1cc2[nH]c(=O)c(=O)[nH]c2cc1C)c1ccccc1
CCOc1ccc(C(c2c(O)cc(C)n(CCOC)c2=O)N2CCN(c3ccccc3)CC2)cc1 (centres undefined)
CCCN(CCC)C(=O)Cn1c(=O)n(-c2cccc(OC)c2)c(=O)c2c(C)c(C(=O)N(C)C)sc21
Cc1ccc(N(CC(=O)N2CCN(c3ccc(Cl)cc3)CC2)S(=O)(=O)c2c(C)nn(C)c2C)cc1
Cc1ccc(-c2cn3nc(N4CCCC(C(=O)Nc5ccc(F)cc5)C4)sc3n2)cc1 (centres undefined)
COc1ccccc1CNC(=O)C1CCCN(C(=O)c2cnn(-c3ccc(F)cc3)c2-n2cccc2)C1 (centres undefined)
CCOc1ccc(OCC)c(NS(=O)(=O)c2cc(-c3cnc(C)o3)ccc2OC)c1
CCn1c2ccccc2c2cc(NC(=O)COc3ccc(C)cc3C)ccc21
CCc1cccc(C)c1NC(=O)Cn1cnc2c1c(=O)n(C)c(=O)n2C
Cc1ccccc1-n1nc(CO)c(C(=O)NCc2cccnc2)n1
CCc1nn2c(=O)cc(COC(=O)c3cccc(NC(=O)c4cccs4)c3)nc2s1
CCOC(=O)c1c(-c2ccccc2)csc1NC(=O)c1cc(=O)c2ccc(C)cc2o1
Cc1nc2nncn2c(Nc2ccccc2)c1C
Cc1ccc(NC(=O)C2CCN(S(=O)(=O)c3ccc4[nH]c5c(c4c3)CCCCC5)CC2)cc1
COc1ccc(N2CCN(C(=O)CCn3c(=O)[nH]c4cc(OC)c(OC)cc4c3=O)CC2)cc1

Activity change, negative = inhibition, inactive:
Cc1ccc2onc(CNC(=O)Nc3ccccc3C#N)c2c1 4.13%
O=C(NCC(c1ccc2c(c1)OCO2)N1CCN(c2ccc(F)cc2)CC1)c1cccc([N+](=O)[O-])c1 (centres undefined) -25.5%
CN(C1CCCCC1)S(=O)(=O)c1ccc2c(c1)c(=O)c(C(=O)NCc1ccccc1Cl)cn2C 3.64%
O=C(Nc1ccc(F)cc1Cl)C1CCN(c2ncnc3c2nc2n3CCCCC2)CC1 1.56%
CCc1ccc(NC(=O)C2CCCN(c3nn4cc(-c5ccc(OC)cc5)nc4s3)C2)cc1 (centres undefined) 0.993%
CCOc1ccc(C2C(C(=O)OC)=C(C)NC3=C2C(=O)c2ccccc23)cc1OC (centres undefined) -11.1%
CCc1ccccc1NC(=O)CSc1ncccc1C(=O)O 10.5%
COc1ccc2[nH]cc(CCNC(=O)Nc3cccc(F)c3)c2c1 2.82%
CC(=O)c1ccc(NS(=O)(=O)c2cnc(N)nc2)cc1 -9.34%
Cc1cccc(NC(=O)CSC2=Nc3ccccc3C3=NC(CCC(=O)NCc4ccc(F)cc4)C(=O)N23)c1 (centres undefined) 7.81%
CCOc1ccccc1NC(=O)c1cc2cc(C)ccc2n1C -11.8%
CC1CCN(S(=O)(=O)c2ccc(C(=O)Nc3nc4ccc(F)cc4s3)cc2)CC1 -3.82%
COC(=O)c1c(NC(=O)COc2c(C)cccc2C)sc2c1CCCC2 -2.77%
COc1ccccc1NC(=O)C1=C(C)Nc2nc(-c3ccco3)nn2C1c1ccccc1 (centres undefined) 6.35%
COc1ccc(-c2nc(SCC(=O)Nc3ccc4c(c3)OCO4)c(-c3ccccc3)[nH]2)cc1 -28.6%
COc1cccc(CNC(=O)c2ccc3c(c2)N(C)C(=O)C2CCCCN32)c1 (centres undefined) -6.25%
CCc1ccc(NC(=O)C2CCC(CNS(=O)(=O)c3cccs3)CC2)cc1 (centres undefined) -0.471%
CCC(=O)N1CCc2cc(Br)cc(S(=O)(=O)N3CCC(C(=O)N(CC)CC)CC3)c21 -6.39%
CCOc1ccc(-c2cc3nc(C4CCN(C(=O)OC(C)(C)C)CC4)c(C(=O)Nc4ccc(C)c(F)c4)cn3n2)cc1 -5.84%
CCOC(=O)c1c(NC(=O)c2cc(-c3ccc(Cl)cc3)on2)sc2c1CCCC2 12.9%
CC1CCN(c2cc3c(cc2F)c(=O)c(S(=O)(=O)c2ccc(Cl)cc2)cn3C)CC1 22%
COc1ccc(Nc2nc3c(S(=O)(=O)c4ccc(Br)cc4)nnn3c3ccsc23)c(OC)c1 8.87%
COc1ccc(-c2noc(N3CCC(C(=O)Nc4ccc(F)cc4Cl)CC3)n2)cc1 -13.7%
Cc1ccc2c(c1)C(=O)OC(C(=O)Nc1ncc(Cc3ccc(C(C)C)cc3)s1)C2 (centres undefined) 9.02%
Cc1ccc(Cl)cc1NS(=O)(=O)c1ccc2oc(=O)c3ncn(C)c3c2c1 -7.02%
COc1cccc(CNC(=O)C(CC(C)C)NS(=O)(=O)c2ccc3c(c2)oc(=O)n3C)c1 (centres undefined) -9.93%
Cc1c2cnn(CC(=O)N3CCCCC3)c(=O)c2c(C)n1Cc1ccc(F)cc1 -7.81%
CCC(Sc1nc2ncccc2[nH]1)C(=O)Nc1cccc(OC)c1 (centres undefined) 6.83%
O=C(NCCc1ccc(F)cc1)C(=O)NCC(c1cccs1)S(=O)(=O)c1ccc(F)cc1 (centres undefined) -1.46%
Cc1ccc2sc(N3CCN(C(=O)CCS(=O)(=O)c4ccc(Cl)cc4)CC3)nc2c1C -0.937%
Cc1ccc(C)c(S(=O)(=O)c2cn(C)c3cc(N4CCCCC4C)c(F)cc3c2=O)c1 (centres undefined) 8.74%
CN1CCc2c(sc3c2C(=O)NC(c2ccc(OC(=O)c4ccccc4)cc2)N3)C1 (centres undefined) -2.73%
COc1ccc(OC)c(NCc2cccn2-c2nnc(N3CCCCC3)s2)c1 -21.4%
OCCN1CCN(CCCN2c3ccccc3Sc3ccc(C(F)(F)F)cc32)CC1 -38%
COc1ccc(CNC(=O)Cn2ncc3c4ccccc4n(Cc4cccc(Cl)c4)c3c2=O)cc1 1.19%
COCCCn1c(=O)c2sccc2n2c(CCCC(=O)Nc3cc(C)cc(C)c3)nnc12 12.4%
COc1ccccc1OCCCSc1nc(-c2ccc(C(C)(C)C)cc2)nc2cc(=O)[nH]n12 -2.82%
Cc1ccc(NC(=O)C(Cc2ccccc2)n2cccc2)cc1 (centres undefined) 4.07%
Cn1c(=O)c2c(-c3ccc(Cl)cc3)n(Cc3ccc(Cl)cc3)cc2n(C)c1=O 7.77%
Cc1cccc(-c2nc3c4ccccc4nc(N4CCN(c5ccccc5F)CC4)n3n2)c1 4.17%
Cc1ccc(CNC(=O)NCc2noc3ccc(C)cc23)cc1 5.7%
COc1ccc(C(=O)NCCn2cc(SCC(=O)Nc3ccc(C)cc3)c3ccccc32)cc1 3%
COc1ccc(C)cc1NC(=O)c1ccc2c(=O)n3c(nc2c1)CCCCC3 -1.96%
COc1ccc(-c2cc(C)no2)cc1S(=O)(=O)Nc1c(C)cc(C)cc1C -16.4%
Cc1ccc(Cn2c(CNS(=O)(=O)c3cccc([N+](=O)[O-])c3)nc3cccnc32)cc1 4.69%
COc1ccc(OC)c(CNC(=O)c2ccc(C)c(NC(=O)c3nsc4ccccc34)c2)c1 4.88%
CCCCNC(=O)C1CCN(S(=O)(=O)CCC)CC1 -16.7%
COc1ccc(-c2c(C)c3ccc(O)c(CN4CCOCC4)c3oc2=O)cc1 4.94%
COC(=O)c1cc2sc(Cl)cc2n1Cc1c(C)cc(C)cc1C 9.27%
CCOC(=O)C1CCN(C(c2ccc(SC)cc2)c2c(O)cc(C)n(Cc3ccco3)c2=O)CC1 (centres undefined) 1.17%
COc1cc(C2NC(=O)c3c(sc4c3CCN(C)C4)N2)cc(Br)c1OC(=O)c1ccc(C)cc1 (centres undefined) -2.27%
COCCNC(=O)Nc1cc(C(=O)NCc2ccc(C(C)C)cc2)ccc1N1CCCC1 11.7%
COc1ccccc1N1CCN(c2ncnc3onc(-c4ccc(F)cc4)c23)CC1 -5.97%
Cc1cccc(NC(=O)CCS(=O)(=O)c2cccc3nsnc23)c1C 4.59%
COc1cccc(C(=O)NCCc2csc(-c3ccc(Cl)cc3)n2)c1 -7.24%
CCc1ccc(CNC(=O)C(C)n2ccc3cc(S(=O)(=O)N4CCCCCC4)ccc32)cc1 (centres undefined) 2.75%
COC(=O)c1c(NC(=O)CCCOc2ccc(C(C)(C)C)cc2)sc2c1C(C(=O)OC)CC2 (centres undefined) 3.14%
CC1CN(C(=O)N2CCC(C(=O)NCc3cccs3)CC2)c2cc(Cl)ccc2O1 (centres undefined) 0.176%
O=C(NCc1cccc(F)c1)C1CCCN(C(=O)N2CCOc3ccccc32)C1 (centres undefined) -8.55%
CCOC(=O)CSC1=Nc2ccccc2C2=NC(CCC(=O)NCc3ccc(F)cc3)C(=O)N12 (centres undefined) -6.61%
COc1ccc(OCC(=O)N2CCC(c3nc4ccccc4s3)CC2)cc1 8.15%
CCCCOc1ccc(C(=O)Nc2ccc3oc(-c4cccnc4)nc3c2)cc1 -5.17%
CCOc1cc(C(=O)NCc2ccc3c(c2)CCN3C(=O)c2ccc(F)cc2)cc(OCC)c1OCC -14.7%
O=C(NC1CCCC1)c1ccc(CSc2nc3ccncc3n2Cc2cccc(F)c2)cc1 -25.1%
COc1ccc(CNC(=O)C(C)Sc2nc(-c3ccccc3)cc(C(F)(F)F)n2)cc1 (centres undefined) 1.77%
CCc1ccccc1NC(=O)C1CCN(S(=O)(=O)c2ccccc2)CC1 6.22%
O=C(O)CCCc1c[nH]c2ccccc12 -16.2%
